The test system of this test is MDA-MB-468 breast. Description: NCI anticancer screen, dose series, 48 h.

The structures appear in SMILES notation.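 Interpolation was linear, between the two tested concentrations surrounding the appropriate level; five concentrations were tested over 48 hours in 96-well plates. Here, GI50 denotes the concentration required for 50% inhibition of growth.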 For part of its entries the source gives two or more results. They are shown here; other results are not. There may be further records. Values given together repeat one measurement (runs, samples, wells, individuals or studies). Marks in square brackets tell the records apart. The letters are not those of the source and start again with each entry.

Regarding `COc1cccc(-c2cc(=O)c3cc(N(C)C)ccc3[nH]2)c1`, the GI50 is 2.04 µM [sample A, 1 test] and 192 nM [sample B, 1 test].

For the origin of these results see PubChem BioAssay (NCI).
